In article PMC6919601, “Identification of Plasmodium dipeptidyl aminopeptidase allosteric inhibitors by high throughput screening” (PLoS ONE, 2019):
The campaign covered roughly 110,000 compounds. About 230 (0.21%) showed an effect of 50% or more. This is one part of the list.

target: DPAP1 (Plasmodium falciparum, UniProt Q8IIJ9); experiment: primary screen, percent inhibition; read by cleavage of a fluorogenic dipeptide substrate; higher = more effect of the substance; parameters: species or system P. falciparum D10 trophozoite lysates; single well
Sequence (Q8IIJ9 whole entry, looked up): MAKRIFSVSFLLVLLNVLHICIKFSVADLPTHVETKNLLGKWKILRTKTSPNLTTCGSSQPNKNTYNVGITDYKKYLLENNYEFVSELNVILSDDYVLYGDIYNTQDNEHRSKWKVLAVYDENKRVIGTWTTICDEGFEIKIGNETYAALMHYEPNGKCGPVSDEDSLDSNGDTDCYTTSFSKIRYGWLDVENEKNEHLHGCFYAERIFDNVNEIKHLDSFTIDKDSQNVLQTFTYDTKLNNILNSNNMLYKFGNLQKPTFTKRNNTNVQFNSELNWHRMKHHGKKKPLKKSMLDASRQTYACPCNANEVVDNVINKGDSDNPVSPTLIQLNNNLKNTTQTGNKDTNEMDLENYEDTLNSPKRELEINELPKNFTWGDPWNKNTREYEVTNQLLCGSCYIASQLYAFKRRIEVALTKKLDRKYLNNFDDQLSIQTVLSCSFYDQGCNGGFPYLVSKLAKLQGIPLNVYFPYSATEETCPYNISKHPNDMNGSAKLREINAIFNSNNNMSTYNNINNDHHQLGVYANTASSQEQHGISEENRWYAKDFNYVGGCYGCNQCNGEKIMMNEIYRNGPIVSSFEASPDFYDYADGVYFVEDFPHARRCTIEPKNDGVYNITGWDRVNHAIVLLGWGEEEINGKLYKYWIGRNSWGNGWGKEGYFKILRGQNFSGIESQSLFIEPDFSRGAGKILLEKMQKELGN
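Further: 30 min substrate incubation versus DMSO and 10 µM JCP410 controls.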

Row | SMILES | % Inhibition @ 10 uM [%]
1 | Cn1c(CO)nc2ccccc21 | -0.551
2 | COc1ccc(OC)c(CNCc2c(C(=O)O)n(Cc3cccc(F)c3)c3cc(C)ccc23)c1 | -6.42
3 | COC(=O)N1CCN(S(=O)(=O)c2ccc(C)cc2)CC1 | -3.6
4 | Cc1cc2nc(O)c(O)nc2cc1S(=O)(=O)N(C)Cc1ccccc1 | 10.8
5 | CCCCCCn1c(SC(C)C)nc2c1c(=O)[nH]c(=O)n2C | 3.96
6 | Cc1nc(NC(=O)c2cccc(OCC(C)C)c2)ccc1Br | 3.8
7 | CN1CCN(C(=O)c2ccc(Cl)c(S(=O)(=O)N3CCCCC3)c2)CC1 | -0.13
8 | CN(C)c1nc(OCc2ccccc2)c2ncc(O)nc2n1 | 4.03
9 | COc1ccc(/C=C/C2=NC(=C/c3cc(OC)c(OC)c(OC)c3)/C(=O)O2)cc1 | 5.32
10 | N#Cc1c(S)nc2c(c1C1CC=CCC1)CCC2 (stereo not drawn) | 43.3
11 | O=C(CC(c1ccccc1)c1ccccc1)N1CCOCC1 | 3.25
12 | O=C(CN1CC(=O)N2CCCC2C1=O)NC1CCCCCC1 (stereo not drawn) | -6.99
13 | CC(C)C[C@H](Nc1ccc(C#N)cc1)C(=O)NCC#N | 17
14 | COc1ccc(NC(=O)C2Cc3ccccc3CN2S(=O)(=O)c2cccs2)cc1 (stereo not drawn) | -2.15
15 | CN(CC(=O)NC1CCCCC1)S(=O)(=O)c1ccc(Cl)cc1 | 1.83
16 | CCOc1ccc(Cc2nc(C)c(CC(=O)N3CCCCC3)c(O)n2)cc1 | 0.64
17 | CCCc1[nH]nc2c1C(c1ccc(OC)c(Cn3nc(C)c(Br)c3C)c1)C(C#N)=C(N)O2 (stereo not drawn) | 3.99
18 | COc1ccc(NC(=O)CN2C(=O)S/C(=C\c3cc(OC)c(O)cc3Br)C2=O)cc1 | -1.16
19 | Cc1ccc2c(c1)-c1onc(C(=O)NCCCN3CCc4ccccc4C3)c1CO2 | 1.69
20 | CCOC(=O)c1cc2c(=O)n3ccccc3nc2n(C(C)C)/c1=N\C(=O)c1ccc2ccccc2c1 | 1.96
21 | O=C(Nc1ccncc1)C(NS(=O)(=O)c1cccc2nsnc12)c1ccccc1 (stereo not drawn) | 3.63
22 | O=C(O)c1cccc(S(=O)(=O)/N=C2\C=C(NS(=O)(=O)c3ccccc3)C(=O)c3ccccc32)c1 | 10.6
23 | O=C(Cn1ncn2cccc2c1=O)NCCc1ccc(Cl)cc1 | -6.12
24 | COc1ccc(-c2ccccc2)cc1NC(=O)C(C(F)(F)F)C(F)(F)F | -2.44
25 | CCOC(=O)N1CCN(C(=O)CCN2C(=O)c3ccccc3C2=O)CC1 | -0.256

Row | SMILES | % Inhibition @ 10 uM [%]
26 | COc1cc(C2=N/C(=C\c3ccccc3C(F)(F)F)C(=O)O2)cc(OC)c1OC | 1.64
27 | O=C(CN1C(=O)S/C(=C\c2ccc(C(=O)O)cc2)C1=O)Nc1ccccc1 | -3.39
28 | CCOc1ccc(C(=O)Nc2ccc(S(=O)(=O)N3CCC(C)CC3)cc2)cc1OCC | -10
29 | Cc1oc2ccc(OCc3ccccc3)cc2c1C(=O)OC(C)C | -0.357
30 | Cc1cc(C)c2c(=O)n(CC(=O)N3CCC(Cc4ccccc4)CC3)sc2n1 | 19
31 | N#CCNC(=O)[C@H](CC1CCCCC1)NC(=O)c1ccc(Br)cc1 | -1.83
32 | O=C(O)c1c(CNCc2ccccc2Cl)c2ccccc2n1Cc1ccccc1 | 5.09
33 | COc1cccc(CNc2ccc(C(=O)O)cc2)c1OCc1ccccc1 | 3.49
34 | COc1cc(NC(=O)c2sc3nc4c(cc3c2N)CCCC4)cc(OC)c1 | 1.17
35 | COc1ccccc1CNC(=O)[C@H](CCS(C)(=O)=O)N1Cc2ccccc2C1=O | 1.26
36 | CCOc1cc(CNCc2c(C(=O)O)n(CC)c3cc(C)ccc23)cc(OCC)c1OCC | -7.28
37 | CN(/C=C/C(=O)c1ccccc1)S(=O)(=O)c1ccccc1 | -1.91
38 | CCCN1CCN(C(=O)CCC(=O)N2Cc3ccccc3Oc3ncccc32)CC1 | 3.53
39 | CCNC(=O)c1c(NC(=O)c2cc(=O)c3ccccc3o2)sc2c1CCCC2 | -1.47
40 | C=CCNC(=O)COc1ccc(Cl)cc1Cl | -5.46
41 | CC1CCN(CC(O)c2ccc3cc[nH]c3c2)CC1 (stereo not drawn) | 2.34
42 | COc1cc(OC)cc(C(=O)Nc2cc(-c3nc4ncccc4o3)ccc2Cl)c1 | 1.64
43 | Cn1c(SCc2ccc(F)cc2)nc2ccc(C(=O)N3CCN(C(=O)c4ccco4)CC3)cc21 | -1.38
44 | Cc1ccccc1CNCCC1=CCCCC1 | 3.62
45 | CC(=O)Nc1nn2c(-c3ccco3)nnc2s1 | 7.67
46 | Cc1ccc(-[n+]2c(=O)c(-c3ccccc3)c(O)n3nc(C)ccc32)cc1 | 9.48
47 | CCNS(=O)(=O)c1ccc(NC(=O)Nc2cccc3ccccc23)cc1 | -3.87
48 | CN(Cc1ccccc1)C(=O)CN(Cc1ccccc1)S(C)(=O)=O | -0.185
49 | c1ccc(Cn2c(C3CCCO3)nc3ccccc32)cc1 (stereo not drawn) | -1.22
50 | Cc1ccc(CCS(=O)(=O)c2ccc(C(C)(C)C)cc2)cn1 | 1.9

Row | SMILES | % Inhibition @ 10 uM [%]
51 | COc1ccc(C2=N/C(=C/c3ccccc3C(F)(F)F)C(=O)O2)cc1Br | -1.65
52 | CN1C=CC(=Cc2sc3ccccc3[n+]2C)C=C1 | -5
53 | CCc1n(CC(O)COc2ccccc2OC)c2ccccc2[n+]1CC (stereo not drawn) | -3.41
54 | O=C(Nc1ccccc1O)c1cccc(S(=O)(=O)N2CCOCC2)c1 | -8.36
55 | CCC(C)NC(=O)c1onc(C)c1Cl (stereo not drawn) | -5.25
56 | O=C(N1CC=C(c2ccccc2)CC1)C1(S(=O)(=O)c2ccc(Cl)cc2)CC1 | -0.0508
57 | COC(=O)c1c(NC(=O)C2=C(C)N=C3CCCC(O)=C3C2c2ccccc2F)sc2c1CCCC2 (stereo not drawn) | 7.68
58 | CCC(C)NC(=O)c1ccc(CS(=O)Cc2ccc(C)cc2)o1 (stereo not drawn) | 3.24
59 | CCOc1ccc2nc(C)sc2c1 | 2.13
60 | C=CCN1C(=O)/C(=C\c2ccc(Cl)cc2)C(C(=O)OCC)=C1C | -2.43
61 | CC(=O)N1c2ccccc2C(C)(c2ccc(Br)cc2)CC1(C)C (stereo not drawn) | 2.13
62 | C=C(C)Cn1c(CCCNC(=O)c2cccc(C)c2)nc2ccccc21 | 3.49
63 | C=CCn1c(SCC(N)=O)nc2sc3c(c2c1=O)CCCC3 | 5.59
64 | OC(c1ccccc1)(c1ccccc1)C1CCCN1 (stereo not drawn) | -3.6
65 | O=C1CCCc2nn(-c3ccccc3)nc21 | 2.92
66 | CC1=C(C(=O)N2CCN(C(=O)c3ccco3)CC2)C2(CCN(Cc3ccccc3)CC2)OC1=O | 3.87
67 | OC(CN1CCOCC1)c1csc2ccccc12 (stereo not drawn) | -4.18
68 | Cc1ccc(Cl)cc1-n1nnc(-c2nc(-c3ccc4c(c3)OCO4)no2)c1N | 2.45
69 | CCN(CC)CCNC(=O)Cn1ncc2c(C)n(Cc3ccccc3F)c(C)c2c1=O | 2.84
70 | CCCOc1ccc(C2C3=C(O)CCCC3=NC(C)=C2C(=O)Nc2ccccc2OC)cc1OC (stereo not drawn) | 3.99
71 | COc1cccc(N(CC(=O)NCc2ccccc2)S(=O)(=O)c2ccc(C)cc2)c1 | -6.75
72 | CCOC(=O)c1cnc2nc(-c3ccc(OC)cc3)nn2c1O | -0.671
73 | CCOc1ccc(-c2c(C)[n+]([O-])c3c([n+]2[O-])CCCCC3)cc1 | 0.147
74 | Cc1ccccc1-c1noc(CCC(=O)NCC2CCCO2)n1 (stereo not drawn) | -3.12
75 | CSc1nc(Oc2cccc3ccccc23)cc(-n2ncc(C#N)c2N)n1 | -5.79

Row | SMILES | % Inhibition @ 10 uM [%]
76 | Oc1cc(O)c(C(O)(C(F)(F)F)C(F)(F)F)cc1C(O)(C(F)(F)F)C(F)(F)F | 3.47
77 | COc1ccc(C2Nc3ccccc3C(=O)N2c2ccccc2)cc1 (stereo not drawn) | -3.05
78 | O=C(/C=C/c1cccc([N+](=O)[O-])c1)Nc1ccc(Cl)cc1 | 6.14
79 | O=C(CSCc1cnn(-c2ccccc2)c1-n1cccc1)NCc1ccccc1Cl | -5.15
80 | COc1ccc2cc(-c3nc(-c4cccnc4)no3)c(=O)oc2c1 | -4.32
81 | CC(=O)c1cccc(/N=C(\C)C2=C(O)c3ccccc3C2=O)c1 | 6.97
82 | Cc1cc(/C=C2\SC(N)=NC2=O)c(C)n1-c1ccccc1 | -4.24
83 | CC(C)NC(=O)CSc1cn(CC(=O)N(C(C)C)C(C)C)c2ccccc12 | 7.99
84 | CCO/C(O)=C1/C(C)=Nc2ncnn2C1c1ccccc1Cl (stereo not drawn) | -5.19
85 | Cc1cc(C)c2c3c(sc2n1)C(c1ccccc1Cl)C(C#N)=C(N)O3 (stereo not drawn) | -0.305
86 | Cc1nnc2c3ccccc3c(N3CCCC3)nn12 | 2.02
87 | Cc1ccc(S(=O)(=O)Nc2ccc(Br)cc2C)cc1 | -3.35
88 | O=C(NC1CCN(Cc2ccccc2)CC1)C1CCN(c2nnc(-n3cccc3)s2)CC1 | -2.25
89 | N#CCNC(=O)[C@H](CC1CCCCC1)NC(=O)Nc1ccc2ccccc2c1 | -1.83
90 | CC(C)c1ccc(/C=C/C(=O)N2CCN(C)CC2)cc1 | 1.63
91 | COc1ccc(-c2c(C)nn3c(O)cc(C)nc23)cc1 | -3.44
92 | O=C(Nn1cnnc1)c1sc2ccccc2c1Cl | -0.0626
93 | COc1ccc(C(=O)N2CCN(C(=O)CC(C)C)CC2)cc1OC | -5.26
94 | O=[N+]([O-])c1ccccc1S(=O)(=O)Nc1ccc(Cl)cc1 | 0.962
95 | C=CCS(=O)(=O)C[C@H](NC(=O)OC)C(=O)N[C@@H](CCCC)C(=O)c1nc2ccccc2o1 | 7.14
96 | CCc1ccc2ncc(S(=O)(=O)c3ccc(OC)cc3)c(N3CCC4(CC3)OCCO4)c2c1 | -0.0881
97 | Clc1ccc(-c2cnc3ccccc3n2)cc1Cl | -2.03
98 | COc1ccc(C2=NN(CC(=O)NCCN(C)C)C(=O)CC2)cc1 | 1.62
99 | COc1ccc(CCNC(=O)CN2C(=O)c3cccc4cccc(c34)C2=O)cc1OC | 4.03
